What all share (experiment): Primary Screen for Target Class Profiling of Small Molecule Inhibitors of Methyltransferases
The target of assay [1] is Glycine N-methyltransferase (Homo sapiens) (UniProt Q14749). Conditions: purified enzyme, MTase-Glo SAH luminescence; measured here: GNMT inhibition; at 40 µM; stronger effect = lower value. The method, boiled down:
(§1)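 Each enzyme was assayed with SAM and its substrate. SAH formation detected by MTase-Glo luminescence; single-point 40 uM screen[…].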

For assay [2], the target named is Guanidinoacetate N-methyltransferase (Homo sapiens) (UniProt Q14353). As to conditions: purified enzyme, MTase-Glo SAH luminescence; measured here: GAMT inhibition; at 40 µM; stronger effect = lower value. The method, boiled down: as §1
Assay [3] deals with Histamine N-methyltransferase (Homo sapiens) (UniProt P50135). Conditions: purified enzyme, MTase-Glo SAH luminescence; measured here: HNMT inhibition; at 40 µM; stronger effect = lower value. The method, boiled down: as §1
Assay [4] deals with Nicotinamide N-methyltransferase (Homo sapiens) (UniProt P40261). As to conditions: purified enzyme, MTase-Glo SAH luminescence; measured here: NNMT inhibition; at 40 µM; stronger effect = lower value. In short, it runs like this:
as §1

Assay [5] addresses Phenylethanolamine N-methyltransferase (Homo sapiens) (UniProt P11086). As to conditions: purified enzyme, MTase-Glo SAH luminescence; measured here: PNMT inhibition; at 40 µM; stronger effect = lower value. The method, boiled down:
as §1

The other results are listed elsewhere or left out. Further columns of the screen follow, without active or inactive calls.
On the % scale 0 is the no-effect control and ±100 the full control effect.

Consider `CCCn1c(=O)c2ccc(C(=O)NC3CCCCC3)cc2n2c(=O)n(Cc3c(F)cccc3Cl)nc12`, for which the activity change, negative = inhibition was 2.06% in assay [1]; 4.72% in assay [2]; 2.92% in assay [3]; 4.54% in assay [4]; 4% in assay [5].
For `Cc1n[nH]c(C)c1CNC(=O)C1CCCCC(=O)N1` (configuration not stated) the same measures were 0.748%, -0.317%, 0.198%, -0.175% and 0.539%.
For `COc1cccc(N2C(=O)c3cc4sccc4n3CC2(C)C(=O)NC2CCC(C)CC2)c1` (configuration not stated) the same measures were -2.06%, 4.36%, -0.854%, 0.013% and -2.98%.
The matching figures for `Cc1ccc(-c2ccc3c(ccc4sc5c(c43)NC[C@@H](C)NC5=O)n2)cn1`: 5.78%, 4.7%, 10.7%, -9.84% and -3.6%.
With `Cc1cccc(CSc2nnc3n(Cc4ccccc4)c(=O)c4ccccc4n23)c1`, the activity change, negative = inhibition was 4.92% in assay [1]; 0.407% in assay [2]; 3.77% in assay [3]; -0.349% in assay [4]; 3.96% in assay [5].
The matching figures for `CC(C)OCCCn1c(=O)c2ccccc2n2c(CCC(=O)Nc3ccc(F)c(F)c3)nnc12`: -3.65%, 15.1%, 6.94%, -12.8% and -2.77%.
Turning to `Nc1nc(OCc2ccccc2)c2[nH]cnc2n1`, the activity change, negative = inhibition in assay [1] was -12.3%; in assay [2], -4.45%; in assay [3] it was -4.27%; in assay [4], -21.8%; in assay [5] it was -12.2%.
For `CC1C(O)C(O)C2C(C(=O)OCCc3ccc(O)cc3)=COC(O[C@@H]3O[C@H](CO)[C@@H](O)[C@H](O)[C@H]3O)C12` (some centres not stated) the same measures were 3.37%, 5.48%, 11.2%, -3.65% and 3.44%.
The matching figures for `Cc1ccc(CNC(=O)c2ccc3c(=O)[nH]c4c(C(=O)NCC5CCCO5)sc(=S)n4c3c2)cc1` (configuration not stated): -9.06%, 1.93%, 9.83%, -11.5% and 0.797%.
The matching figures for `O=S(=O)(c1ccc(Cl)cc1)c1nnn2c1nc(NCCc1ccccc1)c1ccccc12`: -0.293%, 1.95%, 5.41%, 3.3% and -0.032%.
For `CN(Cc1ccccc1)C1(C(=O)NC2CCC(O)CC2)Cc2ccccc2C1` (configuration not stated), the activity change, negative = inhibition in assay [1] is -0.552%; in assay [2], -1.52%; in assay [3] it was -0.33%; in assay [4], 0.079%; in assay [5], 0.522%.
The matching figures for `CCCOc1ccc(CN2C(=O)c3cc(C(C)(C)C)nn3CC2(C)C(=O)NC2CCCCC2)cc1` (configuration not stated): -2.96%, 3.25%, 5.75%, -2.27% and -1.35%.
For `CSCCC(=O)N[C@H]1CN(c2cc(C3CC3)ncn2)C[C@@H]1C1CC1`, the activity change, negative = inhibition is -6.5% in assay [1]; -6.76% in assay [2]; -4.96% in assay [3]; -7.25% in assay [4]; -0.917% in assay [5].
For `Cn1cc(C(=O)NCCc2cccs2)c(S(=O)(=O)N2CCCCC2)n1` the same measures were -2.65%, 4.71%, -5.89%, -7.07% and -6.02%.
The matching figures for `CN(C)C[C@@H]1CN(C2CCOCC2)C[C@H]1NC(=O)c1cc2ccccc2[nH]1`: -5.42%, -5.36%, -4.02%, -8.23% and -3.54%.
The matching figures for `O=C([C@@H]1C[C@H](F)CN1S(=O)(=O)Cc1ccccc1)N1CCOCC1`: -3.24%, -8.6%, -6.9%, -8% and -7.77%.
Turning to `CC(C)(O)c1ccc2c(c1)C(O)CC1C(C)(C(=O)O)CCCC21C` (configuration not stated), the activity change, negative = inhibition was 0.562% in assay [1]; 6.2% in assay [2]; 9.63% in assay [3]; -7.76% in assay [4]; 2.1% in assay [5].
For `COC1CCCN(C(=O)c2cnc(Cc3c(Cl)cccc3Cl)[nH]c2=O)C1` (configuration not stated) the same measures were -5.49%, 0.179%, 0.509%, 0.191% and 1.39%.
On to `CNC1CN(c2ccc3c(=O)c(C(=O)O)cn(-c4nccs4)c3n2)CC1OC` (configuration not stated), for which the values for the activity change, negative = inhibition in assay [1] and in assay [3] were -2.4% and -5.13%, respectively.
In the case of `CO[C@@H]1COCC[C@H]1NC(=O)c1cn(CCN2CCNCC2)nn1`, the activity change, negative = inhibition is -0.83% in assay [1]; -3.75% in assay [2]; 0.818% in assay [3]; -2.43% in assay [4]; -2.73% in assay [5].
For `O=C(CCc1nnc2n(CCc3ccccc3)c(=O)c3ccccc3n12)N1CCC(Cc2ccccc2)CC1` the same measures were -5.2%, 0%, 5.42%, 3.05% and -1.58%.
`O=C(CN1C(=O)CNC1=O)N[C@H](c1ccc2c(c1)CCO2)C1CC(O)C1` (some centres not stated): the activity change, negative = inhibition was -5.76% in assay [1]; -8.97% in assay [2]; -4.04% in assay [3]; -12.1% in assay [4]; -7.92% in assay [5].
Consider `COCCCNc1nc(-c2cccnc2)nc2c1CNC2`, for which the activity change, negative = inhibition in assay [1] was -5.03%; in assay [2], -5.86%; in assay [3], -4.64%; in assay [4], -4.72%; in assay [5] it was -9.51%.
The matching figures for `O=C(c1cc(CN2CCC(Cc3ccccc3)CC2)on1)N1CCN2CCCC2C1` (configuration not stated): -3.25%, -10.2%, -2.62%, -5.89% and -1.95%.
The matching figures for `CCN(Cc1nccn1C)C(=O)c1cc(-c2cnc(C)nc2)nc2ccc(F)cc12`: -2.13%, -3.52%, -2.63%, -11.5% and -6.71%.
`CCC(=O)N1CCN(c2ccc(-n3c(=O)ccc4cnc5ccc(-c6cnc7ccccc7c6)cc5c43)cc2C(F)(F)F)CC1`: the activity change, negative = inhibition in assay [1] is 2.33%; in assay [2], 1.15%; in assay [3], 4.54%; in assay [4], -10.9%; in assay [5], -4.21%.
With `CC(=O)N1CCc2nn(CC(=O)Nc3ccccc3C(C)C)c(=O)cc2C1`, the activity change, negative = inhibition was -1.65% in assay [1]; -6.24% in assay [2]; -2.32% in assay [3]; -9.64% in assay [4]; -2.15% in assay [5].
Take `COc1ccc(-c2cnc([C@@H]3COCCN3Cc3nc4ccccc4n3C)[nH]2)cc1`: the activity change, negative = inhibition was -8.25% in assay [1]; -8.75% in assay [2]; -7.35% in assay [3]; -16.1% in assay [4]; 2.28% in assay [5].
For `CC1(C)CC=C(C#Cc2ccccc2)c2cc(/C=C/c3ccc(C(=O)O)cc3)ccc21` the same measures were -37.5%, -3.97%, -3.11%, -33.2% and -4.27%.
The matching figures for `CCC(C(=O)NCc1c(C)ncc2c1CCNC2)n1cccn1` (configuration not stated): -3.7%, -1.64%, -3.61%, -3.65% and -8.5%.
With `O=C(O)c1ccnc(-c2ccnc(NCCCN3CCCC3=O)n2)c1`, the activity change, negative = inhibition in assay [1] was -6%; in assay [2], -8.64%; in assay [3], -4.8%; in assay [4] it was -14.2%; in assay [5] it was -10.7%.
On to `O=C(C1CCOCC1)N1CCOC[C@H](Oc2ccccc2)C1`, for which the activity change, negative = inhibition is -3.87% in assay [1]; -3.6% in assay [2]; -1.57% in assay [3]; -7.32% in assay [4]; -1.12% in assay [5].
Turning to `Cc1ccc(Nc2ccnc(N3CCC(C(=O)NCc4ccc(F)cc4)CC3)n2)cc1`, the activity change, negative = inhibition was -4.49% in assay [1]; 1.51% in assay [2]; -5.36% in assay [3]; -7.06% in assay [4]; 6.39% in assay [5].
As to `Cc1ccc(C)c(NS(=O)(=O)c2ccc3c(c2)[C@H]2C=CC[C@H]2[C@@H](c2cccc(Cl)c2)N3)c1`, the activity change, negative = inhibition is -6.89% in assay [1]; -0.503% in assay [2]; -14% in assay [3]; -18.1% in assay [4]; -11.7% in assay [5].
The matching figures for `C=C1C[C@]23C[C@H]1CC[C@H]2C1=C[C@H]2OC(=O)[C@@](C)([C@H]1[C@@H]3C(=O)O)[C@H]2O`: 4.22%, 3.54%, 8.78%, -7.11% and 2.64%.
For `C[N+]1(CCCCC[N+]2(C)CCCC2)CCCC1` the same measures were 8.9%, 14%, 14.3%, -3.61% and -1.5%.
The matching figures for `CC(C)C1(O)NC(=O)C(CC2(O)c3ccccc3N3C(=O)C(C)(C)NC32)n2c1nc1ccccc1c2=O` (configuration not stated): -0.86%, -6.19%, 1.32%, -20.4% and 0.83%.
In the case of `C[C@H](NC(=O)C(C)(C)Oc1ccc(C(F)(F)F)cn1)[C@@H](Cc1ccc(Cl)cc1)c1cccc(C#N)c1`, the activity change, negative = inhibition is -2.6% in assay [1]; -15.2% in assay [2]; 3.59% in assay [3]; -30.5% in assay [4]; -5.96% in assay [5].
The matching figures for `COC(=O)C1C(c2ccc(O)cc2)C(C(=O)OC)C1c1ccc(O)cc1` (configuration not stated): 3.6%, 3.53%, 9.71%, -9.06% and 2.38%.
